{"source": "patent CN112625136A", "about": "(SANYOU BIOPHARMACEUTICALS SHANGHAI CO LTD; SHANGHAI ZJ BIO …, dated 2021)", "key": {"[1]": {"biological_target": "T1, S蛋白RBD-His(319Arg-532Asn) (2019-nCoV (SARS-CoV-2))", "T1 construct": "range […]; also called Spike-RBD-His", "test": "blocking ELISA as in Example 6.1: ACE2-huFc coated, biotin-labelled RBD-His"}, "[2]": {"biological_target": "T1, S蛋白RBD-His(319Arg-532Asn)"}}, "data": [{"binder": "P14-F8 (Fc fusion, also called P14-F8-Parental; 候选驼源纳米抗体P14-F8) EVQLVESGGGLVQPGGSLRLSCAASGFRFGSYYMSWVRQAPGKAPEWVSDINTRGETTRYSDSVKGRFTIARDNANNTVFLFMNRLKPEDTAVYYCAVAASGDTFEGRSDPDYWGQGTLVTVSS[human IgG1 Fc with changes not spelt out]", "values": [{"measurement": "IC50", "setting": "[1]", "value": 1.89, "unit": "nM"}, {"measurement": "Kd", "setting": "[2]", "value": 18.2, "unit": "nM"}, {"measurement": "koff", "setting": "[2]", "value": 0.00251, "unit": "s⁻¹"}, {"measurement": "kon", "setting": "[2]", "value": 138000, "unit": "M⁻¹ s⁻¹"}]}]}
